Values marked as one replicate rest on one cluster of the flow cell; about a third of the high ones do not repeat.
test system: ATP; experiment: switch fluorescence ratio, 500 uM ATP over buffer (Cy3 cluster intensity, sum of 5 cycles each) (fold (ratio)); higher = stronger signal-on switching upon ATP binding; sequences stand for … in TCGTCGGCAGCGTCAGATGTGTATAAGAGACAGTTTTTTTTTTTTTTTTTTTTTTTTT…TC; settings: aptamer strand: ATP DNA aptamer (quencher-CACCTGGGGGAGTATTGCGGAGGAAGG + anchor), 100 nM annealed; ATP concentration: 500 uM; one replicate
Summary of the method: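 Five buffer/ATP imaging cycles were run on Cy3-labelled switching-strand clusters on a modified Illumina MiSeq flow-cell, with NaOH stripping and re-annealing between cycles. In each cycle, clusters annealed to 100 nM quencher-labelled ATP aptamer were imaged in selection buffer, then after 15 min with 500 uM ATP at 22 °C. Per cluster, the fluorescence ratio is summed target-cycle over summed buffer-cycle Cy3 intensity, averaged per switch-domain sequence. Only clusters within 100-1000 RFU were kept.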
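Also: ATP exposure 15 min at 22 °C before imaging.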

Q: How did the switch fluorescence ratio turn out when GGACCGCGCT was run?
A: 1.13

Q: For GGACCGCGGC, which switch fluorescence ratio is on record?
A: 1.09

Q: How did the switch fluorescence ratio turn out when GGACCGGTGT was run?
A: 1.01

Q: For GGACGAATTT, which switch fluorescence ratio is on record?
A: 1.05

Q: With GGACGACAAA as the sequence, how does the switch fluorescence ratio read?
A: 1.01

Q: Which switch fluorescence ratio does the source give for GGACGACGCG here?
A: 1.07

Q: With GGACGAGTAT as the sequence, how does the switch fluorescence ratio read?
A: 1.04

Q: With GGACGCGGTG as the sequence, how does the switch fluorescence ratio read?
A: 1.05

Q: GGACGTAGAG was tested. Which switch fluorescence ratio did it give?
A: 0.994

Q: How did the switch fluorescence ratio turn out when GGACGTCGG was run?
A: 0.965

Q: How did the switch fluorescence ratio turn out when GGACTAGACT was run?
A: 1.04

Q: With GGACTGGAGT as the sequence, how does the switch fluorescence ratio read?
A: 1

Q: With GGACTGTAAA as the sequence, how does the switch fluorescence ratio read?
A: 1.07

Q: For GGACTTGGGG, which switch fluorescence ratio is on record?
A: 1.01

Q: For GGAGAATAGC, which switch fluorescence ratio is on record?
A: 1.01

Q: With GGAGAATGCT as the sequence, how does the switch fluorescence ratio read?
A: 0.959

Q: Which switch fluorescence ratio does the source give for GGAGACTGG here?
A: 1.02

Q: GGAGAGAATT was tested. Which switch fluorescence ratio did it give?
A: 1

Q: For GGAGAGTGT, which switch fluorescence ratio is on record?
A: 0.969

Q: How did the switch fluorescence ratio turn out when GGAGATGTTC was run?
A: 1.04

Q: Which switch fluorescence ratio does the source give for GGAGCATGTA here?
A: 1.06

Q: With GGAGCCGACT as the sequence, how does the switch fluorescence ratio read?
A: 0.999

Q: With GGAGCCGGTT as the sequence, how does the switch fluorescence ratio read?
A: 0.996

Q: GGAGCGTCTG was tested. Which switch fluorescence ratio did it give?
A: 1.03

Q: How did the switch fluorescence ratio turn out when GGAGCGTGTA was run?
A: 0.995

Q: For GGAGCTAACG, which switch fluorescence ratio is on record?
A: 1.64

Q: For GGAGGAACAC, which switch fluorescence ratio is on record?
A: 1.24

Q: Which switch fluorescence ratio does the source give for GGAGGAAGC here?
A: 1.02

Q: Which switch fluorescence ratio does the source give for GGAGGCACGT here?
A: 0.996

Q: With GGAGGGAAGG as the sequence, how does the switch fluorescence ratio read?
A: 1.01

Q: GGAGGGTGAC was tested. Which switch fluorescence ratio did it give?
A: 1.01

Q: For GGAGGTCCGG, which switch fluorescence ratio is on record?
A: 1.01

Q: For GGAGTAATTC, which switch fluorescence ratio is on record?
A: 2.3

Q: With GGAGTATGTG as the sequence, how does the switch fluorescence ratio read?
A: 0.974

Q: How did the switch fluorescence ratio turn out when GGAGTCTTAT was run?
A: 0.979

Q: GGAGTGAAAT was tested. Which switch fluorescence ratio did it give?
A: 1.84

Q: For GGAGTGATTG, which switch fluorescence ratio is on record?
A: 0.996

Q: How did the switch fluorescence ratio turn out when GGAGTGCAGT was run?
A: 0.994

Q: GGAGTGGTG was tested. Which switch fluorescence ratio did it give?
A: 0.978

Q: With GGAGTGTGTA as the sequence, how does the switch fluorescence ratio read?
A: 1.02

Q: How did the switch fluorescence ratio turn out when GGAGTTGGCA was run?
A: 1.03

Q: For GGATAACCAT, which switch fluorescence ratio is on record?
A: 0.984

Q: With GGATACGCCC as the sequence, how does the switch fluorescence ratio read?
A: 1.34

Q: GGATAGCAGG was tested. Which switch fluorescence ratio did it give?
A: 0.994

Q: How did the switch fluorescence ratio turn out when GGATAGTACG was run?
A: 1.02

Q: With GGATCACATT as the sequence, how does the switch fluorescence ratio read?
A: 0.973

Q: Which switch fluorescence ratio does the source give for GGATCACTCG here?
A: 1.04

Q: How did the switch fluorescence ratio turn out when GGATCGGCTA was run?
A: 0.994

Q: For GGATCGGGG, which switch fluorescence ratio is on record?
A: 0.998

Q: GGATCTAATT was tested. Which switch fluorescence ratio did it give?
A: 0.988

Q: For GGATCTCAT, which switch fluorescence ratio is on record?
A: 0.954

Q: With GGATCTCGCC as the sequence, how does the switch fluorescence ratio read?
A: 1.08

Q: Which switch fluorescence ratio does the source give for GGATGAAGAA here?
A: 1.02

Q: GGATGACCTC was tested. Which switch fluorescence ratio did it give?
A: 0.995

Q: How did the switch fluorescence ratio turn out when GGATGACTGT was run?
A: 0.984

Q: For GGATGAGGGG, which switch fluorescence ratio is on record?
A: 1.01

Q: GGATGCGACG was tested. Which switch fluorescence ratio did it give?
A: 1.05

Q: GGATGGGCAT was tested. Which switch fluorescence ratio did it give?
A: 0.989

Q: With GGATGGTCAC as the sequence, how does the switch fluorescence ratio read?
A: 0.965

Q: How did the switch fluorescence ratio turn out when GGATGTGCTT was run?
A: 0.969

Q: How did the switch fluorescence ratio turn out when GGATTATAAC was run?
A: 0.995

Q: Which switch fluorescence ratio does the source give for GGATTATGAT here?
A: 0.999

Q: For GGATTCAGCG, which switch fluorescence ratio is on record?
A: 0.958

Q: How did the switch fluorescence ratio turn out when GGATTGCACG was run?
A: 0.996

Q: For GGATTGTGCC, which switch fluorescence ratio is on record?
A: 1.03

Q: For GGATTTAGCC, which switch fluorescence ratio is on record?
A: 1.05

Q: How did the switch fluorescence ratio turn out when GGATTTTCTG was run?
A: 1.01

Q: For GGCAAAAGGG, which switch fluorescence ratio is on record?
A: 0.985

Q: Which switch fluorescence ratio does the source give for GGCAAAAGTT here?
A: 1.02

Q: For GGCAAAGTAA, which switch fluorescence ratio is on record?
A: 1.01

Q: For GGCAACGTGC, which switch fluorescence ratio is on record?
A: 1

Q: Which switch fluorescence ratio does the source give for GGCAACTATT here?
A: 1.02

Q: For GGCAAGTTGG, which switch fluorescence ratio is on record?
A: 1.16

Q: How did the switch fluorescence ratio turn out when GGCAATGTAT was run?
A: 1.1

Q: Which switch fluorescence ratio does the source give for GGCAATTCGG here?
A: 0.999

Q: Which switch fluorescence ratio does the source give for GGCACAATCA here?
A: 0.972

Q: For GGCACTTTAG, which switch fluorescence ratio is on record?
A: 0.965

Q: GGCACTTTAT was tested. Which switch fluorescence ratio did it give?
A: 1.03

Q: With GGCAGAAGGA as the sequence, how does the switch fluorescence ratio read?
A: 0.99

Q: Which switch fluorescence ratio does the source give for GGCAGAATCC here?
A: 1.01

Q: Which switch fluorescence ratio does the source give for GGCAGCACGA here?
A: 1.1

Q: With GGCAGGGCGG as the sequence, how does the switch fluorescence ratio read?
A: 0.999

Q: With GGCATCTACG as the sequence, how does the switch fluorescence ratio read?
A: 1.08

Q: How did the switch fluorescence ratio turn out when GGCATGAGTG was run?
A: 1.01

Q: GGCATTAACT was tested. Which switch fluorescence ratio did it give?
A: 1.03

Q: GGCATTACGC was tested. Which switch fluorescence ratio did it give?
A: 1.11

Q: Which switch fluorescence ratio does the source give for GGCATTACGT here?
A: 1.16

Q: With GGCATTTACT as the sequence, how does the switch fluorescence ratio read?
A: 1.09

Q: For GGCCACGCAG, which switch fluorescence ratio is on record?
A: 1.07

Q: GGCCAGATCA was tested. Which switch fluorescence ratio did it give?
A: 1.01

Q: With GGCCAGCTAT as the sequence, how does the switch fluorescence ratio read?
A: 0.96

Q: Which switch fluorescence ratio does the source give for GGCCATAGCA here?
A: 1.05

Q: Which switch fluorescence ratio does the source give for GGCCCAAATC here?
A: 0.979

Q: How did the switch fluorescence ratio turn out when GGCCCATCAA was run?
A: 1.03

Q: How did the switch fluorescence ratio turn out when GGCCCGTGTT was run?
A: 1.03

Q: For GGCCCTTTTG, which switch fluorescence ratio is on record?
A: 0.963

Q: GGCCGAGGCT was tested. Which switch fluorescence ratio did it give?
A: 0.961

Q: GGCCGGGGG was tested. Which switch fluorescence ratio did it give?
A: 0.975

Q: Which switch fluorescence ratio does the source give for GGCCGGTCAA here?
A: 0.936

Q: GGCCGTTTTT was tested. Which switch fluorescence ratio did it give?
A: 0.966

Reference: the supplement of paper PMC10126150
